Screen size: about 310,000 compounds; about 18,000 (5.8%) were called active. The inconclusive results got no clear call from the source; some entries with a clear call stand among them for comparison. Calls come from the whole dose curve; as a rule, active = well fitted inhibition curve with a large enough effect; inconclusive = small, poorly fitted or top-dose-only effect, or another doubt; inactive = no such curve, though single readings can be large or run the other way. No potency is given beside an inconclusive call; the fits are too rough.
Experiment: Primary qHTS for delayed death inhibitors of the malarial parasite plastid, 48 hour incubation
Settings: P. falciparum luciferase growth in erythrocytes; series mostly up to 28.7 µM
Summary of the method: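 Luciferase-expressing P. falciparum in infected erythrocytes (2% hematocrit, 0.1% parasitemia final) in RPMI 1640/0.5% Albumax were exposed to compound for 48 hours at 37 C, 5% CO2; growth read as luminescence.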
Potency is the fitted concentration of half-maximal effect; tags give direction and shape of the fitted curve.

| Structure (SMILES) | Potency |
| --- | --- |
| O=C1OCC(CO)(CO)N=C1NNc1ccccc1[N+](=O)[O-] | inconclusive [inhibitor, full curve, poor fit] |
| Cc1ccc(N2CC(C(=O)Nc3ccc(S(=O)(=O)N4CCCC4)cc3)CC2=O)cc1C (stereo not drawn) | inconclusive [inhibitor, partial curve] |
| O=S(=O)(c1ccc(Cl)s1)N1CCN(C/C=C/c2ccccc2)CC1 | inconclusive [inhibitor, single point] |
| Cc1ccc(NC(=O)C(OC(=O)c2ccc(O)cc2)c2ccccc2)cc1Cl (stereo not drawn) | inconclusive [inhibitor, single point] |
| COc1cc(OC)cc(C(=O)Nc2ccc(CN3CCCCC3)cc2)c1 | inconclusive [inhibitor, single point] |
| O=C(CN1CCN(C(=O)c2ccccc2)CC1)Nc1ccc(Cl)cc1F | inactive |
| Cc1ccc(O)c(C2=Nc3ccccc3N=C(c3cccc([N+](=O)[O-])c3)C2)c1 | inconclusive [inhibitor, partial curve] |
| CC1(C)CC2=C(CO1)C(=S)NC(c1ccccc1)N2CC1CCCO1 (stereo not drawn) | inconclusive [inhibitor, single point] |
| Cc1ccc(CC(=O)O/N=C(\N)Cc2ccc([N+](=O)[O-])cc2)cc1 | inactive |
| O=C(NCC(c1ccco1)N1CCc2ccccc2C1)c1cccc(F)c1 (stereo not drawn) | inconclusive [inhibitor, partial curve, poor fit] |
| Cc1c(NC(=O)CCC2CCCCC2)cc(C(=O)N2CCOCC2)cc1[N+](=O)[O-] | inconclusive [inhibitor, partial curve, poor fit] |
| COc1ccc(OC)c(/C=C2\N=C(c3ccccc3)OC2=O)c1 | inconclusive [inhibitor, full curve, poor fit] |
| CCOc1ccc(CNC(=O)Cn2nc(C)c3c(C)n(-c4ccc(C)cc4)nc3c2=O)cc1 | inactive |
| Cc1cccc(C(=O)N/N=C2\CS(=O)(=O)N(C)c3ccsc32)c1 | inconclusive [inhibitor, partial curve] |
| O=C(Nc1ccccc1)C1CC(O)CN1S(=O)(=O)c1ccc([N+](=O)[O-])cc1 (stereo not drawn) | inconclusive [inhibitor, single point] |
| Cn1c(=O)c2c(nc(CN3CCN(Cc4ccccc4)CC3)n2CCN2CCOCC2)n(C)c1=O | inactive |
| C(=C(c1ccccc1)c1ccccc1)c1ccccn1 | inconclusive [inhibitor, single point] |
| COc1ccc(OC)c(Nc2nc(N(C)c3ccccc3)nc(N)c2[N+](=O)[O-])c1 | inconclusive [inhibitor, partial curve, poor fit] |
| C=CCN1C(=O)/C(=C\c2ccc(Oc3nc(N4CCOCC4)nc(N4CCOCC4)n3)c(OC)c2)SC1=S | inconclusive [inhibitor, partial curve] |
| CCOC(=O)C1=C(CN2CCN(c3ccc(F)cc3)CC2)NC(=O)NC1c1cccs1 (stereo not drawn) | inconclusive [inhibitor, single point] |
| CCOc1ccc(/C=N/NC(=O)Cc2cccs2)cc1 | inactive |
| CSc1nc(C(=O)N2CCCC(N3CCN(c4ccccc4C)CC3)C2)cs1 (stereo not drawn) | inconclusive [inhibitor, partial curve] |
| COc1ccc(OC)c(C2C(C#N)=C(N)N(N(C)C)C3=C2C(=O)CC(C)(C)C3)c1 (stereo not drawn) | inconclusive [inhibitor, partial curve, poor fit] |

| Structure (SMILES) | Potency |
| --- | --- |
| CCc1nnc(NC(=O)CCc2nc(C3=CCN(C)CC3)no2)s1 | inconclusive [inhibitor, single point] |
| CC(=O)Oc1ccc(/C(C)=N/N2CCN(Cc3ccc(C)cc3)CC2)cc1 | inconclusive [inhibitor, partial curve] |
| O=C(NNc1nc(-c2ccc(Br)cc2)cs1)c1ccco1 | active: 1.65 µM |
| O=C(CC1C(=O)NC2CCCCC2N1C(=O)c1ccc([N+](=O)[O-])cc1)Nc1ccccc1 (stereo not drawn) | inconclusive [inhibitor, partial curve, poor fit] |
| c1ccc(-c2cc(N3CCCCC3)c3ccccc3n2)cc1 | inconclusive [inhibitor, partial curve] |
| Cc1cc(C)c(C(=O)COC(=O)Cn2c(C)csc2=O)cc1C | inactive |
| Clc1ccc(SCCCCn2ccnc2)cc1 | inconclusive [inhibitor, single point] |
| Cc1ccc(C)c(S(=O)(=O)Nc2cc3c4c(c2)CC(=O)N4CCC3)c1 | inconclusive [inhibitor, single point] |
| Cc1ccc(C(=O)NCC(c2ccco2)N2CCCCC2)s1 (stereo not drawn) | inconclusive [inhibitor, partial curve, poor fit] |
| O=C(CN1CCN(Cc2ccc(Cl)cc2)CC1)N/N=C/C=C/c1ccccc1[N+](=O)[O-] | inconclusive [inhibitor, single point] |
| Cc1ccc(C)c(NC(=O)CN(C)C(=O)c2ccc(-c3ccc(Cl)cc3)o2)c1 | active: 1.47 µM |
| CCc1ccc(/C=C2\SC(N3CCOCC3)=NC2=O)cc1 | inconclusive [inhibitor, partial curve] |
| CCN1CCN(Cc2ccc3c(c2)Cc2ccccc2-3)CC1 | inconclusive [inhibitor, single point] |
| O=[N+]([O-])c1ccc(SCc2ccncc2)nc1 | inactive |
| COc1cc2c(cc1OC)-c1cc3ccc4c(c3c[n+]1CC2)OCO4 | active: 1.04 µM |
| Cc1cc(NC(=O)c2ccc3c(c2)C(=O)N(CC(C)C)C3=O)no1 | inactive |
| COc1ccccc1CN1C[C@@H]2C[C@@H](c3ccc(C)cc3)N3CCC[C@@]23C1=O | inconclusive [inhibitor, single point] |
| O=C(N/C(=C/c1cccc([N+](=O)[O-])c1)C(=O)N1CCOCC1)c1ccc(Br)cc1 | inconclusive [inhibitor, partial curve] |
| COc1cc(C=O)ccc1OCCSc1ccc(Cl)cc1 | inactive |
| N#Cc1ccc(NC(=O)COC(=O)CCc2nc3ccccc3c(=O)[nH]2)cc1 | inactive |
| COc1cc(C(=O)Nc2ccc(N3CCN(C(=O)c4ccc(C)cc4)CC3)cc2)cc(OC)c1OC | inactive |
| O=C1C=C(c2ccccc2Oc2ccccc2)C[C@@H](c2ccc3c(c2)OCO3)C1 | active: 3.7 µM |
| COc1ccc(C(=O)NCCCCNC(=O)c2ccc(OC)c(OC)c2)cc1OC | inactive |

| Structure (SMILES) | Potency |
| --- | --- |
| C=CCn1c(CSc2nnc(-c3ccccc3)n2C)n[nH]c1=S | inconclusive [inhibitor, partial curve, poor fit] |
| Cc1c(C(=O)N2CCN(S(=O)(=O)c3ccc(F)cc3)CC2)oc2ccccc12 | inactive |
| COCCNc1c2c(c(C#N)c3nc4ccccc4n13)CCCC2 | active: 1.65 µM |
| COc1ccccc1CNC(=O)[C@H](C)NC(=O)C1CCN(C(=O)[C@H](CCSC)NC(=O)OC(C)(C)C)CC1 | inconclusive [inhibitor, partial curve] |
| COCCCn1c(=O)/c(=C\c2cccc(OC)c2OC)s/c1=C(/C#N)C(=O)Nc1ccc(C(=O)O)cc1 | inconclusive [inhibitor, single point] |
| Cc1cc(=O)oc2cc(OCC(=O)N3CC[C@@]4(O)CCCC[C@H]4C3)ccc12 | inactive |
| O=[N+]([O-])c1cc2c(cc1/C=N/Nc1nc(Nc3ccccc3)nc(N3CCCCC3)n1)OCO2 | active: 4.65 µM |
| S=C(NCCc1ccccc1)N1CCN(C(c2ccccc2)c2ccccc2)CC1 | active: 9.28 µM |
| C[C@]12CCC(O)CC1CCC1C2CC[C@]2(C)C(c3cc(C(F)(F)F)n[nH]3)CCC12 (stereo partly drawn) | inactive |
| O=C1CN(C(=O)NCC(=O)N2CCCC2)c2ccccc2N1 | inactive |
| Cc1nn(-c2ccccc2)c(Cl)c1CN(C(=O)CCl)c1cccc2ccccc12 | active: 3.7 µM |
| Cc1ccc(N(CC(=O)NCC2CCCO2)C(=O)CCC(=O)Nc2nccs2)cc1C (stereo not drawn) | inactive |
| COc1ccccc1-c1nnc(SCC(=O)NCc2c(C)c(Cl)cc(C(C)C)c2O)o1 | inactive |
| COc1cc(S(=O)(=O)NCCCn2ccnc2)ccc1F | inactive |
| O=C(C(c1ccccc1)c1ccccc1)N1CCN(Cc2ccc(Br)cc2)CC1 | inconclusive [inhibitor, partial curve, poor fit] |
| COc1ccc(N2CCc3c(C)nc4c(OC)cccc4c32)cc1 | inconclusive [inhibitor, full curve, poor fit] |
| CCOc1cccc(CN2CCC(Oc3ccc(C(=O)N4CCCC4)cc3)CC2)c1 | inconclusive [inhibitor, single point] |
| CC(C)(C)OC(=O)CNC(=O)c1[nH]cnc1C(=O)NC1CCN(C(=O)OC(C)(C)C)CC1 | inconclusive [inhibitor, partial curve, poor fit] |
| Cc1cc(C(=O)NC2CC(C)(C)Cc3c2cnn3-c2ccccc2)n[nH]1 (stereo not drawn) | inactive |
| CC1CCN(S(=O)(=O)c2cccc(-c3csc(-c4cccnc4)n3)c2)CC1 | inconclusive [inhibitor, single point] |
| O=[N+]([O-])c1ccc(N2CCC(=NOCc3ccc(Cl)cc3)CC2)cc1 | inconclusive [inhibitor, single point] |
| COc1cc2c(=O)n(CCCC(=O)NCC3CCCO3)c(=O)n(CC(=O)c3ccc(F)cc3)c2cc1OC (stereo not drawn) | inconclusive [inhibitor, single point] |
